From patent US20250177530A1, “MOLECULES THAT BIND TO ENPP1 POLYPEPTIDES” (UNIVERSITY OF PITTSBURGH - OF THE COMMONWEALTH SYSTEM OF …, priority 2022, published 2025)

T1: recombinant ENPP1 (Homo sapiens, UniProt P22413)
T1 construct: designed to express the ENPP1 extracellular domain fused with a His6-FLAG tag; His6-FLAG; made in house; host or cells: Expi293 cells (transient, pIW-Zeocin vector), purified on Nickel resin
T1 sequence (P22413 98-925 limits assumed): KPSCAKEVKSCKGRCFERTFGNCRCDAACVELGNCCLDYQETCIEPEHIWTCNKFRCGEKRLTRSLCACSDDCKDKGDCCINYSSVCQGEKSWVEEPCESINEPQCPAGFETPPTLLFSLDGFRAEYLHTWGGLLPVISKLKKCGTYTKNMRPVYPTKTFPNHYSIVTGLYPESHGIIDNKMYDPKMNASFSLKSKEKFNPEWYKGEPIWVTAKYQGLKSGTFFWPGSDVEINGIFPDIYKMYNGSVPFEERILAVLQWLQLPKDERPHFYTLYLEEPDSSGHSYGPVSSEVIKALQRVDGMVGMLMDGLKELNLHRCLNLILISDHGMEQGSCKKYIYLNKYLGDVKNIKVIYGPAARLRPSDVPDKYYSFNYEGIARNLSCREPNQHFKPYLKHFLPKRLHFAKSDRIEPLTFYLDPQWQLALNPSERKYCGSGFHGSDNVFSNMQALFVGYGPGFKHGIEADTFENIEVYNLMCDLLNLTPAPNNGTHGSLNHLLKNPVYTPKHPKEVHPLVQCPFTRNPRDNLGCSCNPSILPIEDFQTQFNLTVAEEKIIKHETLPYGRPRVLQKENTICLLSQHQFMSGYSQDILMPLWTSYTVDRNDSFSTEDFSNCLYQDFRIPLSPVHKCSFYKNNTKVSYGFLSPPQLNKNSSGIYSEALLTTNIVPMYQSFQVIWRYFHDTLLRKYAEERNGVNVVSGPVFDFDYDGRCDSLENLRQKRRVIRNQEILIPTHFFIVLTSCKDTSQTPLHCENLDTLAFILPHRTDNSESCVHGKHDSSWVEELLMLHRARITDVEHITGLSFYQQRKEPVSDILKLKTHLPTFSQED


Legend:
BSA = BSA (Bos taurus, UniProt P02769); assay: ELISA binding to BSA (specificity)
Sequence of BSA (P02769 25-607): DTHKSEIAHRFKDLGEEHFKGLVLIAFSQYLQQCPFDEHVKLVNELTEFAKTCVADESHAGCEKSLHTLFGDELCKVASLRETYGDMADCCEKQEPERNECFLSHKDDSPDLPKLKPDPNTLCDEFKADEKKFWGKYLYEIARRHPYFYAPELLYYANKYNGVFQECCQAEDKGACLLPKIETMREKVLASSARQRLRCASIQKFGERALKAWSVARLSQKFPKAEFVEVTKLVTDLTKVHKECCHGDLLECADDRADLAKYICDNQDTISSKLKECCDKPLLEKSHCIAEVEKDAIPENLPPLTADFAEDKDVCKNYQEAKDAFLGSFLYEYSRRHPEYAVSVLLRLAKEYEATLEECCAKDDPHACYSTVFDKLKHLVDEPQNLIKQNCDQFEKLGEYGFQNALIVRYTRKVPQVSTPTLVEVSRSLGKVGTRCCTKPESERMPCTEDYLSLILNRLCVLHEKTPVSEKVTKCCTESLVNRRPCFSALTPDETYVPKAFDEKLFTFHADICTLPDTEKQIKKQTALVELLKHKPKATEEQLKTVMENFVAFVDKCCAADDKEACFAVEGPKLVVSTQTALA
Description: The binding and specificity of Fab, scFv, and IgG1 to ENPP1 were analyzed by ELISA. Briefly, ENPP1-His protein was coated at 50 ng/well at 4° C. overnight and blocked with 5% milk for 2 hours at room temperature. After three times washing with PBST, they were incubated with 3-fold serially diluted Fab, scFv, or IgG1 for 1 hour at 37° C. For Fab and scFv detection via the FLAG tag present at the C-terminus, further incubation was performed with anti-FLAG M2-peroxidase (HRP) antibody (A8592, Sigma-Aldrich, St. Louis, MO, USA) for another 1 hour. For the IgG1, HRP-conjugated goat anti-human IgG1 Fc (Sigma-Aldrich, St. Louis, MO, USA) was used for detection.

recombinant ENPP1 = target: T1, recombinant ENPP1; assay: BLItz biolayer interferometry affinity/avidity; assay type: binding; settings: for Kon / koff: curve fitting
Description: The affinity and avidity of the anti-hENPP1 antibody were detected by biolayer interferometry BLItz (ForteBio, Menlo Park, CA, USA). Briefly, DPBS was used to establish a baseline for 30 seconds, and streptavidin biosensor (ForteBio) was coated with 16.7 μg/mL recombinant ENPP1-Biotin for 2 minutes. Different doses of IgG1 and Fab were used for association and monitored for 2 minutes to measure the avidity and affinity. Antigen-coated biosensors with PBS served as a reference control. The dissociation was monitored in DPBS for 4 minutes.

293T-ENPP1 cells [1] = assay: Flow cytometry cell surface binding; assay type: cell-based; settings: 100 nM, ENPP1 positive 293T-ENPP1 cells
Description: (§1) To detect the cells surface expression levels of ENPP1 protein, the cells were stained with anti-ENPP1/PC1 antibody (Abcam, Cambridge, UK) for 30 minutes at 4° C. and then stained with Alexa Fluor 488-conjugated goat anti-rabbit IgG H&L (Abcam) for 30 minutes at 4° C. To determine the cell surface binding of the isolated antibodies, cells were incubated with hlgG1 17, hlgG1 3G12, scFv 17, or scFv 3G12 for 1 hour at 4° C. and then stained with PE-conjugated goat anti-human IgG (Sigma-Aldrich) or APC-conjugated anti-FLAG (Miltenyi Biotec) for 30 minutes at 4° C. For anti-ENPP1-CAR expression on T cells, CD4^+ T and CD8^+ T cells were gated by using PerCP conjugated anti-human CD3 antibody (Biolegend, San Diego, CA, USA) and followed by APC conjugated anti-human CD4 antibody (Biolegend) and FITC conjugated anti-human CD8 antibody (Biolegend) separately, and CAR expression was examined by using biotinylated ENPP1 followed by PE Streptavidin (Biolegend).

293T cells = assay: Flow cytometry cell surface binding; assay type: cell-based; settings: 100 nM, ENPP1 negative 293T cells
Description: as §1

HepG2 cells = assay: Flow cytometry cell surface binding; assay type: cell-based; settings: 100 nM, HepG2 cells (low ENPP1 expression)
Description: as §1

293T-ENPP1 cells [2] = assay: IgG1 internalization by flow cytometry; assay type: cell-based; settings: pHrodo Deep Red labeled IgG1, 37° C., 2 hours
Description: FIGS. 7A-7B. Internalization of IgG1 by ENPP1 positive and negative cell lines.
To access the cell cytotoxicity of anti-ENPP1 IgG1-MMAE ADC, the IgG1 internalization between 293T cells and 293T-ENPP1 cells was investigated by flow cytometry. […] Next, the ADC killing effects with HepG2 cancer cells, which have a lower expression level of ENPP1, were tested. […] When compared with the 293T cell line, the HepG2 was more sensitive to MMAE.

[3] = Size-exclusion chromatography (SEC) aggregation evaluation; assay type: physicochemical; settings: Superdex 200 Increase 10/300 GL, DPBS
Description: The purity and structure of the antibodies were analyzed by Superdex 200 Increase 10/300 GL chromatography (GE Healthcare, Chicago, IL, USA). Briefly, the proteins ferritin, aldolase, conalbumin, ovalbumin, carbonic anhydrase, and ribonuclease were used for calibration. A 500 μL sample mix containing the above proteins was loaded into the column and separated by the ÄKTA explorer machine (GE Healthcare, Chicago, IL, USA). For the antibody analysis, 100 μL of filtered antibodies (2 mg/mL) in 1×DPBS (Dulbecco's phosphate-buffered saline, Gibco, Waltham, MA, USA) was analyzed. Antibodies were eluted by DPBS buffer at a flow rate of 0.5 mL/minute.

293T-ENPP1 cells [4] = assay: ADCC reporter bioassay; assay type: cell-based; settings: serial diluted IgG1, 293T-ENPP1 target cells
Description: The cell-killing activity of anti-ENPP1 CAR^+ T cells and BiTEs were measured by LDH-Glo cytotoxicity assay kit (Promega, Madison, WI, USA). For the cell-killing activity of anti-ENPP1 CAR^+ T cells, control T cells or CAR^+ T cells as effector cells were incubated with 293T, 293T-ENPP1, and HepG2 target cells (5×10^3 cells/well in 96-well plate) separately at indicated E:T ratio for 24 hours at 37° C. For the cell-killing activity of BiTEs, target cells (1×10^4 cells/well) were mixed with serially diluted BiTEs in 50 μL of growth medium, and […] activated T cells were added at the ET ratio 10:1 and cultured for 24 hours at 37° C. in 5% CO2 humidified atmosphere. Controls for the calculation of percentage cytotoxicity were performed according to the manufacturer's instructions. The calculation of relative % cytotoxicity as follows: relative % cytotoxicity=100×(Experimental LDH release-medium background)/(target and effector maximum LDH release control-medium background). For the cell-killing activity of ADC, 293T, 293T-ENPP1, and HepG2 cells were seeded at 2000 cells/well in 96-well white plate and incubated overnight at 37° C. in 5% CO2. […] The calculation of % Relative cell viability was as follows: % Relative cell viability=100×(Experimental luminescence values-medium Background)/(Control luminescence values-medium Background). […]

binding to BSA (BSA)	Kon (recombinant ENPP1) [M⁻¹ s⁻¹]	koff (recombinant ENPP1) [s⁻¹]	Kd (recombinant ENPP1; ENPP1-Biotin on streptavidin biosensor, read-out: equilibrium dissociation constant (KD)) [nM]	Molecule	cell surface binding of IgG1 (293T-ENPP1 cells [1])	cell surface binding of IgG1 (293T cells)	cell surface binding of IgG1 (HepG2 cells) [%]	internalization (293T-ENPP1 cells [2])	form / high molecular weight species measured by SEC [3]	ADCC activity (293T-ENPP1 cells [4])
did not bind to BSA	72000	0.0044	–	Fab 17: Anti-ENPP1 human Fab; light chain SEQ ID NO:286, heavy chain SEQ ID NO:287 (antibody) heavy: QVQLVESGGGLVKPGGSLRLSCAASGFTFSDYYMSWIRQAPGKGLEWVSYISSSGSTIYYADSVKGRFTISRDNAKNSLYLQMNSLRAEDTAVYYCAREVYYYDSSGYYTYYFDYWGQGTLVTVSSASTKGPSVFPLAPSSKSTSGGTAALGCLVKDYFPEPVTVSWNSGALTSGVHTFPAVLQSSGLYSLSSVVTVPSSSLGTQTYICNVNHKPSNTKVDKKVEPKSCDKT light: DIQMTQSPSSLSASVGDRVTITCRASQSISSYLNWYQQKPGKAPKLLIYAASSLQSGVPSRFSGSGSGTDFTLTISSLQPEDAATYYCQQYDTFPLTFGGGTKVEIKRTVAAPSVFIFPPSDEQLKSGTASVVCLLNNFYPREAKVQWKVDNALQSGNSQESVTEQDSKDSTYSLSSTLTLSKADYEKHKVYACEVTHQGLSSPVTKSFNRGEC	–	–	–	–	–	–
–	–	–	–	IgG1 17: Fab 17 converted to bivalent antibody by fusion with human IgG1 Fc; HC SEQ ID NO:289, LC SEQ ID NO:286 (antibody) heavy: QVQLVESGGGLVKPGGSLRLSCAASGFTFSDYYMSWIRQAPGKGLEWVSYISSSGSTIYYADSVKGRFTISRDNAKNSLYLQMNSLRAEDTAVYYCAREVYYYDSSGYYTYYFDYWGQGTLVTVSS[human IgG1 constant region not spelt out] light: DIQMTQSPSSLSASVGDRVTITCRASQSISSYLNWYQQKPGKAPKLLIYAASSLQSGVPSRFSGSGSGTDFTLTISSLQPEDAATYYCQQYDTFPLTFGGGTKVEIKRTVAAPSVFIFPPSDEQLKSGTASVVCLLNNFYPREAKVQWKVDNALQSGNSQESVTEQDSKDSTYSLSSTLTLSKADYEKHKVYACEVTHQGLSSPVTKSFNRGEC	specific binding	no binding effects	11	efficiently and highly internalized	monomer and had no high molecular weight species	no effects on inducing ADCC
did not bind to BSA	52000	0.0018	–	Fab 3G12: Anti-ENPP1 human Fab; light chain SEQ ID NO:288, heavy chain SEQ ID NO:287 (antibody) heavy: QVQLVESGGGLVKPGGSLRLSCAASGFTFSDYYMSWIRQAPGKGLEWVSYISSSGSTIYYADSVKGRFTISRDNAKNSLYLQMNSLRAEDTAVYYCAREVYYYDSSGYYTYYFDYWGQGTLVTVSSASTKGPSVFPLAPSSKSTSGGTAALGCLVKDYFPEPVTVSWNSGALTSGVHTFPAVLQSSGLYSLSSVVTVPSSSLGTQTYICNVNHKPSNTKVDKKVEPKSCDKT light: DIQMTQSPSSLSASVGDRVTITCRASQSISSYLNWYQQKPGKAPKLLIYAASSLQSGVPSRFSGSGSGTDFTLTISSLQPEDVAVYYCQQYYTSRITFGQGTKLEIKRTVAAPSVFIFPPSDEQLKSGTASVVCLLNNFYPREAKVQWKVDNALQSGNSQESVTEQDSKDSTYSLSSTLTLSKADYEKHKVYACEVTHQGLSSPVTKSFNRGEC	–	–	–	–	–	–
–	–	–	4.16	IgG1 3G12: Fab 3G12 converted to bivalent antibody by fusion with human IgG1 Fc; HC SEQ ID NO:289, LC SEQ ID NO:288 (antibody) heavy: QVQLVESGGGLVKPGGSLRLSCAASGFTFSDYYMSWIRQAPGKGLEWVSYISSSGSTIYYADSVKGRFTISRDNAKNSLYLQMNSLRAEDTAVYYCAREVYYYDSSGYYTYYFDYWGQGTLVTVSS[human IgG1 constant region not spelt out] light: DIQMTQSPSSLSASVGDRVTITCRASQSISSYLNWYQQKPGKAPKLLIYAASSLQSGVPSRFSGSGSGTDFTLTISSLQPEDVAVYYCQQYYTSRITFGQGTKLEIKRTVAAPSVFIFPPSDEQLKSGTASVVCLLNNFYPREAKVQWKVDNALQSGNSQESVTEQDSKDSTYSLSSTLTLSKADYEKHKVYACEVTHQGLSSPVTKSFNRGEC	specific binding	no binding effects	12	efficiently and highly internalized	monomer and had no high molecular weight species	no effects on inducing ADCC
